This note sets out measurements from patent US20240325539A1, “METHODS AND COMPOSITIONS FOR TREATING EPSTEIN BARR VIRUS-ASSOCIATED CANCER” (The Chancellor, Masters and Scholars of the University of …, priority 2020, published 2024).

The test system of the series is PBMCs from an EBV+ healthy donor. The experiment in a line: IFNγ ELISpot of ex vivo EBV-specific CD8+ T cell responses. Particulars: PBMCs with pool of EBV epitopes, 12 hours; range of doses. The series is classed as cell-based, human. The text has this:
To be able to effectively “kick” EBV+GC cells into Zta+ abortive EBV reactivation lytic cycle presented us with an opportunity to “kill” the reactivated EBV+ cancer cells by harnessing the host's immune system, Zta specific T cells in particular as Zta is highly immunogenic (Pudney, V. A., et al. (2005). J Exp Med 201, 349-360) and many EBV seropositive individuals have Zta memory T cells. This study was set out to test whether HDACi have any direct impacts on CD8+ T cell responses to EBV viral antigens. Peripheral blood mononuclear cells (PBMCs) from an EBV+ healthy donor were stimulated with a pool of pre-determined EBV epitopes in the presence or absence of HDACi for 12 hours, and ex vivo EBV-specific CD8+ T cell responses were determined by an IFNγ ELISpot assay. […] In parallel, the optimal dose of each HDACi for AGS-EBV to minimize cell toxicity versus their ability to induce Zta expression was determined (FIG. 15A). To provide a proof of principle, whether reactivation of Zta by HDACi could sensitize tumor cells for recognition and killing by Zta-specific CD8+ T cells was subsequently tested. […] The TCR gene was retrovirally transduced into a TCR-negative T cell line (SKW3) or primary human CD8+ T cells for functional readouts, including cytokine production and killing of the tumor cells.

Molecules are shown by their SMILES.

With `Nc1cc(F)ccc1NC(=O)c1ccc(CNC(=O)/C=C/c2cccnc2)cc1` [chidamide], the “effect on T cell responses to EBV antigens” value is reported as “little, if any, inhibitory effect”.
For the molecule `Cc1[nH]c2ccccc2c1CCNCc1ccc(/C=C/C(=O)NO)cc1` [panobinostat], the “effect on T cell responses to EBV antigens” value is given as “substantially greater inhibition of the T cell responses than SAHA”.
